Results taken from the supplement of paper PMC4967469.

Tests used:
Assay in all cases: Viability of human cancer cell lines after 72 h of drug (GDSC screen)
[1] = compound: CC/C(=C(\c1ccccc1)c1ccc(OCCN(C)C)cc1)c1ccccc1 [Tamoxifen]; details: top dose 5 µM
Experimental: (§1)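 Human cancer cell lines in 384-well plates, medium with 10% serum, drug for 72 h over a 256-fold dose range (nine 2-fold or five 4-fold steps up to the top dose). Adherent lines were fixed and stained with the nucleic acid dye Syto60, suspension lines read with resazurin; signal relative to control wells, capped at 0 and 100%. One two-parameter sigmoid per drug and line, fitted in a mixed model over all curves with the slope shared within a line.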

[2] = compound: COc1cc(N2CCC(C(N)=O)CC2)ccc1Nc1nc(N)c(Cl)c(Nc2ccccc2S(=O)(=O)C(C)C)n1 [HG-5-88-01]; details: top dose 10 µM; top dose inferred
Experimental: as §1

[3] = compound: O=S(=O)(O)c1ccc2cc(N=Nc3cc(S(=O)(=O)O)c4cccnc4c3O)ccc2c1 [NSC-87877]; details: top dose 16 µM; top dose inferred
Experimental: as §1

[4] = compound: CN(NC(=O)CC(=O)NN(C)C(=S)c1ccccc1)C(=S)c1ccccc1 [Elesclomol]; details: top dose 0.2 µM; top dose inferred
Experimental: as §1

[5] = compound: O=C(Nc1cccc(Nc2ncc(Br)c(NCCc3cnc[nH]3)n2)c1)N1CCCC1 [BX-912]; details: top dose 10.24 µM; top dose inferred
Experimental: as §1

[6] = compound: CCCC(=O)OCc1ccc(OC(=O)/C=C(C)/C=C/C=C(C)/C=C/C2=C(C)CCCC2(C)C)cc1 [VNLG/124]; details: top dose 5.12 µM; top dose inferred
Experimental: as §1

[7] = compound: O=C(Nc1ccc(OC(F)(F)F)cc1)c1sccc1NCc1ccnc2ccccc12 [OSI-930]; details: top dose 10.24 µM
Experimental: as §1

[8] = compound: Cc1ccc(NC(=O)c2ccc(CN3CCN(C)CC3)cc2)cc1Nc1nc(-c2cccnc2)cs1 [Masitinib]; details: top dose 20 µM
Experimental: as §1

[9] = compound: Cc1c(N)nc([C@H](CC(N)=O)NC[C@H](N)C(N)=O)nc1C(=O)N[C@H](C(=O)N[C@H](C)[C@@H](O)[C@H](C)C(=O)N[C@H](C(=O)NCCc1nc(-c2nc(C(=O)NCCC[S+](C)C)cs2)cs1)[C@@H](C)O)[C@@H](OC1OC(CO)C(O)C(O)C1OC1OC(CO)C(O)C(OC(N)=O)C1O)c1cnc[nH]1 [Bleomycin]
Experimental: as §1

[10] = compound: O=C(/C=C/c1ccc(CN(CCO)CCc2c[nH]c3ccccc23)cc1)NO [LAQ824]; details: top dose 1.024 µM; top dose inferred
Experimental: as §1

[11] = top dose 50 µM, screen: GDSC drug entry 1378, top dose inferred
[12] = top dose 64 µM, screen: GDSC drug entry 190

Cell Line: SJSA-1 (bone, adherent)
- AUC [1]: 0.978
- IC50 [1]: > 5 µM
- AUC [2]: 0.947
- IC50 [2]: > 10 µM
- AUC [3]: 0.984
- IC50 [3]: > 16 µM
- AUC [4]: 0.52
- IC50 [4]: 0.0143 µM
- AUC [5]: 0.932
- IC50 [5]: > 10.2 µM
- AUC [6]: 0.973
- IC50 [6]: > 5.12 µM
- AUC [7]: 0.936
- IC50 [7]: > 10.2 µM
- AUC [8]: 0.795
- IC50 [8]: 10.7 µM
- AUC [9, 11]: 0.616
- IC50 [9, 11]: 6.81 µM
- AUC [9, 12]: 0.428
- IC50 [9, 12]: 2.48 µM
- AUC [10]: 0.484
- IC50 [10]: 0.0577 µM

Cell Line: SK-LMS-1 (soft tissue, adherent)
- AUC [1]: 0.974
- IC50 [1]: > 5 µM
- AUC [2]: 0.816
- IC50 [2]: 5.19 µM
- AUC [3]: 0.771
- IC50 [3]: 5.86 µM
- AUC [4]: 0.482
- IC50 [4]: 0.0112 µM
- AUC [5]: 0.866
- IC50 [5]: 8.4 µM
- AUC [6]: 0.987
- IC50 [6]: > 5.12 µM
- AUC [7]: 0.947
- IC50 [7]: > 10.2 µM
- AUC [8]: 0.902
- IC50 [8]: > 20 µM
- AUC [9, 11]: 0.258
- IC50 [9, 11]: 0.66 µM
- AUC [9, 12]: 0.419
- IC50 [9, 12]: 2.43 µM
- AUC [10]: 0.448
- IC50 [10]: 0.0466 µM

Cell Line: SK-MEL-1 (melanoma, suspension)
- AUC [1]: 0.991
- IC50 [1]: > 5 µM
- AUC [2]: 0.993
- IC50 [2]: > 10 µM
- AUC [3]: 0.983
- IC50 [3]: > 16 µM
- AUC [4]: 0.992
- IC50 [4]: > 0.2 µM
- AUC [5]: 0.975
- IC50 [5]: > 10.2 µM
- AUC [6]: 0.992
- IC50 [6]: > 5.12 µM
- AUC [7]: 0.991
- IC50 [7]: > 10.2 µM
- AUC [8]: 0.931
- IC50 [8]: > 20 µM
- AUC [9, 11]: 0.965
- IC50 [9, 11]: > 50 µM
- AUC [9, 12]: 0.971
- IC50 [9, 12]: > 64 µM
- AUC [10]: 0.824
- IC50 [10]: 0.504 µM

Cell Line: SK-MEL-2 (melanoma, adherent)
- AUC [1]: 0.985
- IC50 [1]: > 5 µM
- AUC [2]: 0.899
- IC50 [2]: > 10 µM
- AUC [3]: 0.987
- IC50 [3]: > 16 µM
- AUC [4]: 0.56
- IC50 [4]: 0.0183 µM
- AUC [5]: 0.916
- IC50 [5]: > 10.2 µM
- AUC [6]: 0.982
- IC50 [6]: > 5.12 µM
- AUC [7]: 0.984
- IC50 [7]: > 10.2 µM
- AUC [8]: 0.939
- IC50 [8]: > 20 µM
- AUC [9, 11]: 0.57
- IC50 [9, 11]: 4.89 µM
- AUC [9, 12]: 0.596
- IC50 [9, 12]: 7.4 µM
- AUC [10]: 0.551
- IC50 [10]: 0.0886 µM

Cell Line: SK-MEL-3 (melanoma, adherent)
- AUC [1]: 0.982
- IC50 [1]: > 5 µM
- AUC [2]: 0.893
- IC50 [2]: > 10 µM
- AUC [3]: 0.919
- IC50 [3]: > 16 µM
- AUC [4]: 0.937
- IC50 [4]: > 0.2 µM
- AUC [5]: 0.926
- IC50 [5]: > 10.2 µM
- AUC [6]: 0.983
- IC50 [6]: > 5.12 µM
- AUC [7]: 0.96
- IC50 [7]: > 10.2 µM
- AUC [8]: 0.83
- IC50 [8]: 15.4 µM
- AUC [9, 11]: 0.671
- IC50 [9, 11]: 10.2 µM
- AUC [9, 12]: 0.682
- IC50 [9, 12]: 14.1 µM
- AUC [10]: 0.488
- IC50 [10]: 0.0591 µM

The IC50 comes from the fitted curve, where viability falls to half of the control; fits outside the tested doses are given as limits. AUC is the area under the same curve over the 256-fold range up to the top dose, as a fraction: 1 means no effect, lower means more sensitive. For some assays here: A top dose marked as inferred is not printed in the source and was worked back from the curve model. For some assays here: Where an entry number is given, a second screen of the drug exists; the two often differ.
